# Measurements as given in the RNAGym collection of RNA variant scans (doi:10.1073/pnas.2313332121).
# Variants at the floor of the assay are shown more often than the library holds them.
# B1: TPR 5TU (parent)
# chain: GGAUCUUCUCGAUCUAACAAAAAAGACAAAUCUGCCACAAAGCUUGAGAGCAUCUUCGGAUGCAGAGGCGGCAGCCUUCGGUGGCGCGAUAGCGCCAACGUUCUCAACUAUGACACGCAAAACGCGUGCUCCGUUGAAUGGAGUUUAUCAUG
# Variants of: B1
# Assay: polymerase ribozyme fitness, log enrichment relative to wild type (log ratio); higher = more active; in vitro selection for triplet polymerase activity
# Method in brief: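 Each subunit of a heterodimeric triplet polymerase ribozyme was mutagenized into a library by PCR, transcribed, and subjected to one round of in vitro selection, run in triplicate. Libraries were annealed with a biotinylated primer, the partner subunit and triplets, incubated frozen at −7 °C, and extended constructs were gel-excised, captured on streptavidin beads and recovered by RT-PCR. Input and output libraries were sequenced on Illumina, keeping genotypes with ≥10 input reads and ≥1 read per output. Fitness is log base 2 of genotype enrichment divided by wild-type enrichment, from inverse-variance-weighted replicate averages.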
row,Variant,polymerase ribozyme fitness (log ratio)
1,A12U A24C G46A A52G G141U A147G,≤ -4.2
2,A12U A24C G48C G58A A91C C95A,≤ -4.2
3,A12U A24U A28C G42U A60U C79G A91U G143A,≤ -4.2
4,A12U A24U A66C C87G G88A C116U G124U,≤ -4.2
5,A12U A24U A66C C87G G88A C116U G124U A147U,≤ -4.2
6,A12U A26C C35A U55C G59C C76A C93A U111C A138G U144A,≤ -4.2
7,A12U A26C G50A G67C C85A C96U G143C,≤ -4.2
8,A12U A26U G46C C57U C93U C125G U127G A138G,≤ -4.2
9,A12U A28C A66U G86U,≤ -4.2
10,A12U A28C G50C C57A C116U,≤ -4.2
11,A12U A28G C43U G59A A60G,≤ -4.2
12,A12U A28U C32G G42C A49C G50C U145A U146G,≤ -4.2
13,A12U A30C C87G C96U A106C C116G U130G G136C,≤ -4.2
14,A12U A30G A47G U61A C69G U78G U145G,≤ -4.2
15,A12U A30G C87A,≤ -4.2
16,A12U A37C C95G C123A G143U,≤ -4.2
17,A12U A39U A150C,≤ -4.2
18,A12U A40C G92A C118G,-3.87
19,A12U A41U G68U G71C C76U G84C C105G,≤ -4.2
20,A12U A47G C118G,-1.11
21,A12U A49C G74A G86A A89U G92C C93A C114U A147C,≤ -4.2

row,Variant,polymerase ribozyme fitness (log ratio)
1,A12U A49C G81C,≤ -4.2
2,A12U A52C U53A C57U G92U G124U U148A,≤ -4.2
3,A12U A66C C87U C118A,≤ -4.2
4,A12U A89U G94U C108G C118U A120C A122C A137C,≤ -4.2
5,A12U A91C C99U G124C G140U A142C,≤ -4.2
6,A12U A91U A120G U146A,-4.18
7,A12U C14A C85G U145C,-3.7
8,A12U C14G A22C A47C U56A C75G G84U C99A C105A,≤ -4.2
9,A12U C14G C27A G67C C87U A137C G152C,≤ -4.2
10,A12U C14G C87G A97G G143U,≤ -4.2
11,A12U C14U A17U G59A C93U A122U G143C,≤ -4.2
12,A12U C14U A28G A41C A49G C51U A73C C93G U101G,≤ -4.2
13,A12U C14U C43G C96U A142U,≤ -4.2
14,A12U C18G C32G G50C U53C C85A C103A,≤ -4.2
15,A12U C18G C63G G83U U111G,≤ -4.2
16,A12U C18G G92C,-2.01
17,A12U C18U U44C G59A G140C G141C C149G,≤ -4.2
18,A12U C27A A52C G71C C105U,≤ -4.2
19,A12U C27G G34C G86C G140U G141A,≤ -4.2
20,A12U C32G G100A C129A U144G,≤ -4.2
21,A12U C32U C75G U111C,≤ -4.2

row,Variant,polymerase ribozyme fitness (log ratio)
1,A12U C35G C36G U55G G86U,≤ -4.2
2,A12U C35U A52G C85A A91U C96A U109G,≤ -4.2
3,A12U C36A A64U G86A U111G,≤ -4.2
4,A12U C36G G67A G81U G83C,≤ -4.2
5,A12U C36G G86A A110C U139A,-4.11
6,A12U C36G G92U C125U C131U,≤ -4.2
7,A12U C38U G83A U101C G141U G152U,≤ -4.2
8,A12U C43A C54U U55A G94U A98C A120G,≤ -4.2
9,A12U C43U C63U U90C C105G G140A,≤ -4.2
10,A12U C51A U77G A147C,≤ -4.2
11,A12U C51U C54U C87G A138G,≤ -4.2
12,A12U C54A C95U,-1.84
13,A12U C54G G80U C87U C105G U145A,≤ -4.2
14,A12U C63A A89C C95G C114U C118U,≤ -4.2
15,A12U C79U C93G C132G,≤ -4.2
16,A12U C85A,-1.85
17,A12U C85A C93G A110U C116U U134G,≤ -4.2
18,A12U C85U C93A G133U,≤ -4.2
19,A12U C87A U90C A113G C131U,≤ -4.2
20,A12U C93A,-1.26
21,A12U C93U A97U C103U C105U G133U,≤ -4.2

row,Variant,polymerase ribozyme fitness (log ratio)
1,A12U C96U,-0.566
2,A12U C118U A119C G136A G143C,-3.19
3,A12U G25A A41C G65A U77G G126A,≤ -4.2
4,A12U G25C C35U U77G G94U,≤ -4.2
5,A12U G34C G62C A73U C96U A107G C116G A147G,≤ -4.2
6,A12U G42C C43A A66U G136U U144C U145G,≤ -4.2
7,A12U G42C C72G C76A A91U A120U U144C,≤ -4.2
8,A12U G46A A91U C93U C132A,≤ -4.2
9,A12U G50A C63G C76A C93U C125U U127G,≤ -4.2
10,A12U G50A C75U G83A G88C,≤ -4.2
11,A12U G50A U61C C87G C131G,≤ -4.2
12,A12U G50U G83C C103A,≤ -4.2
13,A12U G58A C85G A106G A137U A150C,≤ -4.2
14,A12U G58C G62U U127C G140A,≤ -4.2
15,A12U G80U G84C A97G U134C,≤ -4.2
16,A12U G83C C96U A107C U109A C116A A142C,≤ -4.2
17,A12U G88C A97G C118A A150U,≤ -4.2
18,A12U U13A A52C C87A G94U U134A A138U,≤ -4.2
19,A12U U13A C85A C93G,≤ -4.2
20,A12U U13C G25A G67C G88C A97U U111C,≤ -4.2
21,A12U U15A A21U U55A C76U C79A A121U,≤ -4.2
